First the molecules themselves.
T1: myostatin (Homo sapiens, UniProt O14793)
T1 construct: To produce mature myostatin, the pooled promyostatin was enzymatically cleaved between the propeptide and mature myostatin C terminal; made in house
T1 sequence (O14793 267-375): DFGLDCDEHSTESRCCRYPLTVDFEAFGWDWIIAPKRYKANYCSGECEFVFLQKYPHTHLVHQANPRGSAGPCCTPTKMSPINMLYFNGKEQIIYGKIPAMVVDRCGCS

B1: mTN8-19-7(-LE) (protein)
chain: [here human IgG1 Fc without letters]GGGGGAQLADHGQCIRWPWMCPPEGWE
B2: mL2-7 (protein)
chain: MGAQRMEMLESLFELLKEIVPMSKAGLEGGGGG[here human IgG1 Fc without letters]
B3: mL2-9 (protein)
chain: MGAQQMELLDSLFELLKEIVPKSQPALEGGGGG[here human IgG1 Fc without letters]
B4: mL15-7 (protein)
chain: [here human IgG1 Fc without letters]GGGGGAQQVDSLQQVLLWLEHKLALGPQVLE
B5: mTN8Con6-5 (protein)
chain: [here human IgG1 Fc without letters]GGGGGAQESRWYPCYEGHLWCFDLTETLE
B6: 2xmTN8-19-21 (protein)
chain: [here human IgG1 Fc without letters]GGGGGAQSEYQGLCTRWPWMCPPQGWKLEGSGSATGGSGSTASSGSGSATGSEYQGLCTRWPWMCPPQGWKLE
B7: 2xmTN8-19-22 (protein)
chain: [here human IgG1 Fc without letters]GGGGGAQTFSQGHCTRWPWMCPPQGWGLEGSGSATGGSGSTASSGSGSATGTFSQGHCTRWPWMCPPQGWGLE
B8: 2xmTN8-19-21(-LE) (protein)
chain: [here human IgG1 Fc without letters]GGGGGAQSEYQGLCTRWPWMCPPQGWKGSGSATGGSGGGASSGSGSATGSEYQGLCTRWPWMCPPQGWK
B9: 2xmTN8-19-33(-LE) (protein)
chain: [here human IgG1 Fc without letters]GGGGGAQPESQGHCTRWPWMCPPQGWGGSGSATGGSGGGASSGSGSATGPESQGHCTRWPWMCPPQGWG
B10: mTN8Con6-3 (protein)
chain: [here human IgG1 Fc without letters]GGGGGAQWTGWYQCYGGHLWCYDLRRKLE
B11: mL20-2 (protein)
chain: [here human IgG1 Fc without letters]GGGGGAQTQRDMSMLDGLLEVLDQLRQQRLE
B12: mL20-3 (protein)
chain: [here human IgG1 Fc without letters]GGGGGAQTSRDMSLLWELLEELDRLGHQRLE
B13: mL15-9 (protein)
chain: [here human IgG1 Fc without letters]GGGGGAQQIEMLESLLDLLRDMVPMSNAFLE
B14: mL20-4 (protein)
chain: [here human IgG1 Fc without letters]GGGGGAQMQHDMSMLYGLVELLESLGHQILE
B15: mTN8-19-21(-LE) (protein)
chain: [here human IgG1 Fc without letters]GGGGGAQSEYQGLCTRWPWMCPPQGWK
B16: mTN8-19-33(-LE) (protein)
chain: [here human IgG1 Fc without letters]GGGGGAQPESQGHCTRWPWMCPPQGWG
B17: 2xmTN8-19-7(-LE) (protein)
chain: [here human IgG1 Fc without letters]GGGGGAQLADHGQCIRWPWMCPPEGWEGSGSATGGSGGGASSGSGSATGLADHGQCIRWPWMCPPEGWE

This assay addresses T1, myostatin. Kind of assay: C2C12 pMARE-luc cell based myostatin activity assay. As to conditions: affinity matured peptibodies; a range of values is given. An excerpt:
The antagonists including the binding agents described herein can be tested for their ability to bind myostatin and inhibit or block myostatin activity. Any number of assays or animal tests may be used to determine the ability of the agent to inhibit or block myostatin activity. Several assays used for characterizing the peptides and peptibodies of the present invention are described in the Examples below. One assay is the C2C12 pMARE-luc assay which makes use of a myostatin-responsive cell line (C2C12 myoblasts) transfected with a luciferase reporter vector containing myostatin/activin response elements (MARE). Exemplary peptibodies are assayed by pre-incubating a series of peptibody dilutions with myostatin, and then exposing the cells to the incubation mixture. The resulting luciferase activity is determined, and a titration curve is generated from the series of peptibody dilutions. The IC50 (the concentration of peptibody to achieve 50% inhibition of myostatin activity as measured by luciferase activity) was then determined. A second assay described below is a BIAcore® assay to determine the kinetic parameters ka (association rate constant), kd (dissociation rate constant), and KD (dissociation equilibrium constant) for the myostatin binding agents and other antagonists such as antibodies capable of binding myostatin and its receptor. Lower dissociation equilibrium constants (KD, expressed in nM) indicated a greater affinity of the peptibody for myostatin. […] These assays are described in Example 3.
C2C12 Cell Based Myostatin Activity Assay
A myostatin-responsive reporter cell line was generated by transfection of C2C12 myoblast cells (ATCC No: CRL-1772) with a pMARE-luc construct. The pMARE-luc construct was made by cloning twelve repeats of the CAGA sequence, representing the myostatin/activin response elements (Dennler et al. EMBO 17: 3091-3100 (1998)) into a pLuc-MCS reporter vector (Stratagene cat #219087) upstream of the TATA box. The myoblast C2C12 cells naturally express myostatin/activin receptors on its cell surface. When myostatin binds the cell receptors, the Smad pathway is activated, and phosphorylated Smad binds to the response element (Macias-Silva et al. Cell 87:1215 (1996)), resulting in the expression of the luciferase gene. Luciferase activity is then measured using a commercial luciferase reporter assay kit (cat # E4550, Promega, Madison, Wis.) according to manufacturer's protocol. A stable line of C2C12 cells that had been transfected with pMARE-luc (C2C12/pMARE clone #44) was used to measure myostatin activity according to the following procedure.
Equal numbers of the reporter cells (C2C12/pMARE clone #44) were plated into 96 well cultures. A first round screening using two dilutions of peptibodies was performed with the myostatin concentration fixed at 4 nM. Recombinant mature myostatin was preincubated for 2 hours at room temperature with peptibodies at 40 nM and 400 nM respectively. The reporter cell culture was treated with the myostatin with or without peptibodies for six hours. Myostatin activity was measured by determining the luciferase activity in the treated cultures. This assay was used to initially identify peptibody hits that inhibited the myostatin signaling activity in the reporter assay. Subsequently, a nine point titration curve was generated with the myostatin concentration fixed at 4 nM. The myostatin was preincubated with each of the following nine concentrations of peptibodies: […], 0.4 nM, 4 nM, 20 nM, 40 nM, 200 nM, 400 nM, 2 uM and 4 uM for two hours before adding the mixture to the reporter cell culture. The IC50 values were for a number of exemplary peptibodies are provided in Tables III and for affinity matured peptibodies, in Table VIII.
The IC50 is the midpoint of a concentration-inhibition curve. Turning to B1, the half-maximal inhibitory concentration (IC50) fell in the range of 1.75 to 2.68 nM.

Molecule B2 registered an IC50 of 90.2 nM. To B3 belongs 106 nM; to B4, 32.8 nM; to B5, 2380 nM. Molecule B6 yielded an IC50 of 0.828 to 1.43 nM. To B7 belongs 0.994 to 1.22 nM; to B8, 0.883 to 1.25 nM; to B9, 1.03 to 1.12 nM. B10: half-maximal inhibition (IC50) was put at 86.8 nM.

As to B11, it took 123 nM to reach half-maximal inhibition (IC50). This IC50 and that of the molecule before are within 1.5-fold of each other.

With B12, inhibition was half-maximal at 158 nM (IC50). As for B13, the figure is 354 nM. As for B14, the figure is 160 nM.

Turning to B15, 2.49 nM corresponded to half-maximal inhibition (IC50). Against the preceding molecule, the IC50 is about 64-fold lower.

B16 showed an IC50 of 1.81 nM. This IC50 and that of the molecule before are within 1.5-fold of each other.

Take B17: the IC50 lay in the range of 1.08 to 1.22 nM.

The record behind these values is patent US20160038588A1, “Myostatin Antagonism in Human Subjects” (AMGEN INC., priority 2013, published 2016).
